# Literature values in article PMC10917340, “Coxsackievirus infection induces direct pancreatic β cell killing but poor antiviral CD8^+ T cell responses” (Science Advances, 2024).
# Test system: new-onset T1D children and adolescents
# Conditions: pleconaril and ribavirin given together; cited from earlier work
row,SMILES,effect on residual insulin secretion
1,Cc1cc(CCCOc2c(C)cc(-c3noc(C(F)(F)F)n3)cc2C)on1 [pleconaril],some preservation of residual insulin secretion
2,NC(=O)c1ncn([C@@H]2O[C@H](CO)[C@@H](O)[C@H]2O)n1 [ribavirin],some preservation of residual insulin secretion
